Results: PubChem BioAssay AID1347165 (National Center for Advancing Translational Sciences (NCATS), 2019)
Values joined by “and” are separate entries in the source; they are usually repeats but may differ in a detail not shown here. Identical values can stand only once. Out of some 220,000 compounds screened, about 5,700 (2.6%) were called active. The inconclusive results got no clear call from the source; some entries with a clear call stand among them for comparison. Calls follow the shape of the dose curve; as a rule, active = well fitted inhibition curve with a large enough effect; inconclusive = small, poorly fitted or top-dose-only effect; inactive = no such curve, though single readings can be large or run the other way. Potencies of inconclusive entries are doubtful fits and often do not repeat.

biological target: Lysine-specific demethylase 5B (Homo sapiens) (UniProt Q9UGL1); assay: Primary screen for KDM5B Histone Demethylases FDH-coupled qHTS; conditions: FDH-coupled NADH fluorescence (FDH is formaldehyde dehydrogenase); activity change, negative = inhibition: at 57.7 µM (top of the series) unless noted; also: nearly all actives have a fitted effect of over 70% in size; as to activity change, negative = inhibition: 0% is about no effect
Summary of the method: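 Coupled FDH/NAD⁺ fluorescence readout. KDM5BΔAP 200 nM final; compound titration, 10 min RT preincubation; substrate mix 12.5 µM H3K4me3, 25 µM 2-OG, 50 µM Fe(II), 100 µM ascorbate, 0.25 mM NAD⁺, 0.25 U/mL FDH; ΔRFU over 30 min.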
Potency is read from the fitted curve at half-maximal effect; tags tell the direction and shape of the fitted curve.

Sequence of UniProt Q9UGL1 (Q9UGL1 whole entry, looked up): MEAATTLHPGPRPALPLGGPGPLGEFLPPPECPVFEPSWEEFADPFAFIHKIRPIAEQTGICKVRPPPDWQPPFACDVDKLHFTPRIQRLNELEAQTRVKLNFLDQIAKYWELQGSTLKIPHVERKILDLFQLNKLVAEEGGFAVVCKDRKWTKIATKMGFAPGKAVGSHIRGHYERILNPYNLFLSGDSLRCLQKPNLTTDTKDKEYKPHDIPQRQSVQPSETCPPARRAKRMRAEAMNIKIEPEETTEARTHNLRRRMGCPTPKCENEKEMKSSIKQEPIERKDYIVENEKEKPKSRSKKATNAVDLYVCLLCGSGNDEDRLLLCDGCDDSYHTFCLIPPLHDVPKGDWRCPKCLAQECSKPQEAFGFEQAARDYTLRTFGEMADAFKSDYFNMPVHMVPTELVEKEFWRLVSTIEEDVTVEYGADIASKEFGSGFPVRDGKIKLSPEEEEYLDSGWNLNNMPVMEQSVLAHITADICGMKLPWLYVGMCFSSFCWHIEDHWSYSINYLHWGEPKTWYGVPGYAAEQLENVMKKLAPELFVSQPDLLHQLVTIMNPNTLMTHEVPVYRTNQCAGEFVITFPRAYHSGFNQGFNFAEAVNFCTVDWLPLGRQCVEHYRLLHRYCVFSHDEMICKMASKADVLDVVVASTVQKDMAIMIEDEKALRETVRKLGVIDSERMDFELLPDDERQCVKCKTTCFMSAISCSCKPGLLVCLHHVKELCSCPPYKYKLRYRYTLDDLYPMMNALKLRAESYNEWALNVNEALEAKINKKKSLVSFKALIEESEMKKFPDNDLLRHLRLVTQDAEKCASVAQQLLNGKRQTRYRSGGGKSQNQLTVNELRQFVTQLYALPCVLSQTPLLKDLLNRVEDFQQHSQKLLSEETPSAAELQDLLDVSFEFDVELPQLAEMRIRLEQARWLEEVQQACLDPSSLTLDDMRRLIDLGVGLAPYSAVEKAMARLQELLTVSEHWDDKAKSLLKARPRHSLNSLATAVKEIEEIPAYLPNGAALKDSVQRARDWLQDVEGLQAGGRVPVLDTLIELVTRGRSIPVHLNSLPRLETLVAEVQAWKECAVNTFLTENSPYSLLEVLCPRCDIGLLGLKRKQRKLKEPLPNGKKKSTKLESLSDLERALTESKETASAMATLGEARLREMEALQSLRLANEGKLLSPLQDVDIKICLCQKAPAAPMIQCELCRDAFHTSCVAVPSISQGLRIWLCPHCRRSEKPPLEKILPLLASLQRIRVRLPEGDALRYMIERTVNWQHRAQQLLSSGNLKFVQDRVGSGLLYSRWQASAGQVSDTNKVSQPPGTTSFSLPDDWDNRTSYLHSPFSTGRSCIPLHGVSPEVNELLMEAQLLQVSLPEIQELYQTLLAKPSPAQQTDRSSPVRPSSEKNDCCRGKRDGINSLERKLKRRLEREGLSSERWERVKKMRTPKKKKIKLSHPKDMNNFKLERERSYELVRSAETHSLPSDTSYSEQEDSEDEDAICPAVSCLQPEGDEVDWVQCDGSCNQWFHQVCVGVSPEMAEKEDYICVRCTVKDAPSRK

Row | Structure (SMILES) | Potency | activity change, negative = inhibition
1 | COCCCNC(=O)C1(C)CN(C)Cc2ccc(NCc3ccccc3)nc21 (configuration not stated) | active: 31.6 µM | 
2 | O=C(NCc1n[nH]c2c1CCC2)c1coc(COc2cccc(F)c2F)n1 | inconclusive: 2.82 µM [inhibitor, full curve] | 
3 | CCN(CC)c1ccc(N=Cc2ccc(Br)s2)cc1 | inconclusive: 5.62 µM [inhibitor, full curve, poor fit] | 
4 | CCn1cnc2c1c(=O)n(CC(=O)NCc1cccs1)c(=O)n2Cc1ccccc1 |  | inactive: 3.63%
5 | Cc1ccc(Cl)cc1-n1nc(-c2c(C)nc3scc(CC(=O)NCC(C)C)n3c2=O)cc1C | active: 22.4 µM | 
6 | CN1CCN(c2nc3ccccc3nc2C(C#N)C(=O)NCc2ccccc2)CC1 (configuration not stated) |  | inactive: 1.33%
7 | Cc1ccccc1CN(c1ccc(C(=O)N2CCN(C)CC2)cc1)S(C)(=O)=O |  | inactive: -13.7%
8 | COc1ccc(C(=O)Nc2nc3c(s2)C[C@@H]2[C@](C)(CO)[C@H](O)CC[C@@]2(C)[C@@H]3CC(=O)NCc2ccccc2)cc1 | inconclusive: 22.4 µM [inhibitor, partial curve] | 
9 | Cn1c(CN2CCOCC2)nc2cc(NC(=O)c3ccccc3[N+](=O)[O-])ccc21 | inconclusive: 25.1 µM [inhibitor, partial curve, poor fit] | 
10 | COc1cncc(Nc2cnc3ccc(-c4cccc(CO)c4)nn23)c1 |  | inactive: -5.81% [at 86.2 µM]
11 | CCCCC(O)(c1ccc(CC)cc1)C(CN1CCOCC1)c1ccccc1 (configuration not stated) | inconclusive: 8.91 µM [inhibitor, partial curve, poor fit] | 
12 | CCOc1ccc(-c2cc(C(=O)NCCc3ccc(C)cc3)c3ccccc3n2)cc1 | inconclusive: 4.47 µM [inhibitor, full curve, poor fit] | 
13 | Cc1cccc(-n2c3nc(=O)[nH]c(=O)c-3cc3ccc(Cl)cc32)c1C | inconclusive: 708 nM [inhibitor, full curve, poor fit] and inconclusive: 22.4 µM [inhibitor, partial curve, poor fit] | 
14 | O=C(NCc1ccsc1)c1nc(-c2ccc(Cl)cc2)c2cnccn12 |  | inactive: -3540%
15 | CC(C)CCNC(=S)NCc1ccco1 | inconclusive: 35.5 µM [inhibitor, single point] | 
16 | Cc1ccccc1NC(=O)c1sc2c(c1C)C(c1cccs1)CC(=O)N2 (configuration not stated) |  | inactive: -12.4%
17 | O=C(NCCc1ccc(Cl)cc1)c1nc(-c2ccc(Cl)nc2)c2cnccn12 | inconclusive: 3.55 µM [inhibitor, full curve, poor fit] | 
18 | Cn1ccc(Nc2nccc3c(=O)cc(-c4cccnc4)oc23)n1 | inconclusive: 28.2 µM [inhibitor, single point] | 
19 | O=c1c2nc(N3CCC(c4ccccc4)CC3)ccc2ncn1-c1cccnc1 | active: 35.5 µM | 
20 | CN1CCCC2(C1)CN(C)c1ccc(C(=O)NCC3CCCCC3)cc12 (configuration not stated) | active: 35.5 µM | 
21 | COc1ccc(OC)c(-c2noc(N3CCN(c4cccc(C(F)(F)F)c4)CC3)n2)c1 | inconclusive: 28.2 µM [inhibitor, partial curve, poor fit] | 
22 | CC(=O)Nc1c(C)noc1/C=C\c1ccc(C)c(S(=O)(=O)Nc2cccc(C)c2C)c1 | inconclusive: 28.2 µM [inhibitor, partial curve, poor fit] | 
23 | Cn1c(=O)c2c(-c3ccc(F)cc3)n(CC(N)=O)cc2n(C)c1=O |  | inactive: -22.1%

Row | Structure (SMILES) | Potency | activity change, negative = inhibition
24 | COc1ccc(OCCCn2c(C3CC(=O)N(c4ccc(F)cc4)C3)nc3ccccc32)cc1 (configuration not stated) | inconclusive: 1.26 µM [inhibitor, partial curve, poor fit] | 
25 | Cc1cccc(CC(=O)NCC2Cn3cccc3C(=O)N2C)c1 (configuration not stated) |  | inactive: 17%
26 | O=C(N[C@@H]1CN(C(=O)Nc2ccc(F)cc2)CCC[C@H]1O)c1ccc(OCCN2CCCC2)cc1 | active: 28.2 µM | 
27 | CCOC(=O)c1c(N)n(-c2ccc(OCC)cc2)c2nc3ccccc3nc12 | inconclusive: 1.26 µM [inhibitor, full curve, poor fit] | 
28 | Cc1ccc(NC(=O)c2ccc(S(=O)(=O)NCC(C)O)cc2)cc1Cl (configuration not stated) | inconclusive: 39.8 µM [inhibitor, single point] | 
29 | CCCC(C)c1nnc(NC(=O)CCS(=O)(=O)c2ccccc2)s1 (configuration not stated) | inconclusive: 17.8 µM [inhibitor, partial curve, poor fit] | 
30 | CC(=O)N1CC2(CCN(Cc3cc4ccccc4[nH]3)C2)Cc2ccccc21 (configuration not stated) | inconclusive: 56.2 µM [inhibitor, partial curve] | 
31 | CC(OC(=O)c1ccc(-n2cnnn2)cc1)C(=O)N1CCc2ccccc21 (configuration not stated) |  | inactive: 13.3%
32 | Cc1noc(-c2cn(C3CCCN(C(=O)c4ccc(C)c(C)c4)C3)nn2)n1 (configuration not stated) |  | inactive: 0.185%
33 | O=C(NC1CCCCC1)c1ccc(CSc2nc3cccnc3n2Cc2ccccc2)cc1 | inconclusive: 22.4 µM [inhibitor, partial curve, poor fit] | 
34 | CCC1c2ccsc2CCN1C(=O)/C=C/c1ccccc1C (configuration not stated) |  | inactive: -19.4%
35 | CC(C)c1noc(-c2ccn3c(CNC(=O)Cc4ccccc4Cl)nnc3c2)n1 | active: 15.8 µM | 
36 | COc1ccc(-c2noc([C@@H]3C[C@@H](O)CN3Cc3ccc(S(C)(=O)=O)cc3)n2)cc1 | inconclusive: 44.7 µM [inhibitor, single point] | 
37 | Cc1ccccc1-c1noc(-c2ccc(NCc3cccnc3)c([N+](=O)[O-])c2)n1 | inconclusive: 22.4 µM [inhibitor, partial curve, poor fit] | 
38 | COc1cccc(-c2nc(-c3c(C)noc3C)cc3c2cc(C)n3C)c1OC | active: 35.5 µM | 
39 | Cc1cccc(C(=O)n2c(=S)nc3cc(C)ccn32)c1 | inconclusive: 39.8 µM [inhibitor, single point] | 
40 | CCCNC(=O)NC(=O)CN(CC(C)C)C1CC1 |  | inactive: 20.5%
41 | O=C(O)CSc1cc(F)ccc1F |  | inactive: 8.2%
42 | CCc1ccc(N2C(=O)CN(S(C)(=O)=O)CC2(C)C(=O)NCc2ccccc2)cc1 (configuration not stated) |  | inactive: 10.5%
43 | COCCN1C(=O)CCC2(C(=O)NCCN(C)C3CCCCC3)CCCC=C12 (configuration not stated) | inconclusive: 39.8 µM [inhibitor, single point] | 
44 | CN(CC(=O)N1CCN(c2oc(-c3ccco3)nc2C#N)CC1)Cc1ccc(C(F)(F)F)cc1 | inconclusive: 28.2 µM [inhibitor, partial curve, poor fit] | 
45 | NC(=O)[C@@H](Cc1c[nH]c2ccccc12)NC(=O)[C@H]1CN(C(=O)c2cccc(F)c2)CCN1C(=O)c1cccs1 |  | inactive: 18%
46 | Cc1ccccc1NC(=O)c1c(C)oc2ccc(O)c(CN3CCCCCC3)c12 |  | inconclusive: -37.8% [inhibitor]

Row | Structure (SMILES) | Potency | activity change, negative = inhibition
47 | Cc1nc(-c2ccc(S(=O)(=O)N3CCN(c4ccccc4F)CC3)cc2)co1 | inconclusive: 31.6 µM [inhibitor, single point] | 
48 | Cc1c(-c2ccccc2)oc2c(C(=O)NC(C)c3ccccc3)cccc2c1=O (configuration not stated) |  | inactive: 14.6%
49 | O=C(CCCCCn1c(=O)[nH]c2ccccc2c1=O)N1CCN(c2cccc(C(F)(F)F)c2)CC1 | inconclusive: 25.1 µM [inhibitor, partial curve, poor fit] | 
50 | CCc1ccccc1NC(=O)N1CCC(Oc2ncccc2C(=O)N2CCCCC2)C1 (configuration not stated) |  | inactive: -2.81%
51 | Cc1cc(C2CCCN2Cc2nc(-c3ccccc3)oc2C)on1 (configuration not stated) |  | inactive: 17.7%
52 | c1ccc(OCCN2CCC(c3nc4ccccc4s3)CC2)cc1 | inconclusive: 14.1 µM [inhibitor, partial curve, poor fit] | 
53 | c1ccc(CCN(Cc2ccccc2)Cc2ccc(OCc3ccccc3)cc2)cc1 |  | inactive: -64.5%
54 | N#Cc1ccc(-c2c(-c3ccccc3)ncn2CCNc2cccnc2)cc1 | active: 28.2 µM | 
55 | COc1cccc(CNC(=O)CN2C(=O)COc3ccc(S(=O)(=O)N4CCCCC4)cc32)c1 | inconclusive: 1.12 µM [inhibitor, full curve, poor fit] | 
56 | O=C(Cc1ccccc1)N1CCC2(CC1)CC(N(Cc1ccc(F)cc1)C1CC1)CCO2 (configuration not stated) |  | inactive: 3.76%
57 | COCC(=O)NC1CCCc2c1[nH]c1c(Cl)cccc21 (configuration not stated) | inconclusive: 17.8 µM [inhibitor, partial curve, poor fit] | 
58 | COc1ccc(-c2ccc3c(n2)CN(Cc2ccccc2C)C(=O)CO3)cc1OC | inconclusive: 44.7 µM [inhibitor, partial curve, poor fit] | 
59 | COc1cc(C2C(C#N)=C(N)Oc3n[nH]c(C)c32)cc(Br)c1OCc1ccccc1 (configuration not stated) |  | inactive: -17.5%
60 | CCN1c2cc(C(=O)Nc3ccc(F)c(Cl)c3)ccc2C(=O)N2CCCC21 (configuration not stated) | inconclusive: 22.4 µM [inhibitor, partial curve, poor fit] | 
61 | O=C1CC(c2ccccc2)N(C(=O)CNC(=O)c2[nH]nc3c2CCc2ccccc2-3)CCCCCN1 (configuration not stated) |  | inactive: 17.3%
62 | COc1ccccc1C(=O)N1CCC2(CC1)OC(=O)N(Cc1ccccc1C#N)C2(C)c1ccccc1 (configuration not stated) |  | inactive: 2.57%
63 | O=CN1CCN(C(=O)c2cc(-c3cccs3)nc3ccccc23)CC1 | inconclusive: 22.4 µM [inhibitor, partial curve, poor fit] | 
64 | CCCCN(CCCC)CCCNC(=O)c1cc(-c2ccc(Cl)s2)nc2ccccc12 | inconclusive: 22.4 µM [inhibitor, partial curve, poor fit] | 
65 | CC(C)c1ccc(C2CC(=O)N3CN(C4CCCCC4)CSC3=C2C#N)cc1 (configuration not stated) | inconclusive: 1.41 µM [inhibitor, full curve, poor fit] | 
66 | CCC(c1cn2cccnc2n1)n1ccnc1-c1cc2n(n1)CCCNC2 (configuration not stated) | inconclusive: 28.2 µM [inhibitor, single point] | 
67 | Cn1ccc2cc(S(=O)(=O)N3CCCC(C(=O)NCc4ccccc4F)C3)ccc21 (configuration not stated) | inconclusive: 15.8 µM [inhibitor, partial curve, poor fit] | 
